Test results published in paper PMC6919601, “Identification of Plasmodium dipeptidyl aminopeptidase allosteric inhibitors by high throughput screening” (PLoS ONE, 2019).
Among all 110,000 compounds or so, about 230 (0.21%) showed an effect of 50% or more. This is one part of the list.

target: DPAP1 (Plasmodium falciparum, UniProt Q8IIJ9); test: primary screen, percent inhibition; read by cleavage of a fluorogenic dipeptide substrate; higher = more effect of the substance; parameters: species or system P. falciparum D10 trophozoite lysates; single well
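Also: 30 min substrate incubation versus DMSO and 10 µM JCP410 controls.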

Chain of DPAP1 (Q8IIJ9 whole entry, looked up): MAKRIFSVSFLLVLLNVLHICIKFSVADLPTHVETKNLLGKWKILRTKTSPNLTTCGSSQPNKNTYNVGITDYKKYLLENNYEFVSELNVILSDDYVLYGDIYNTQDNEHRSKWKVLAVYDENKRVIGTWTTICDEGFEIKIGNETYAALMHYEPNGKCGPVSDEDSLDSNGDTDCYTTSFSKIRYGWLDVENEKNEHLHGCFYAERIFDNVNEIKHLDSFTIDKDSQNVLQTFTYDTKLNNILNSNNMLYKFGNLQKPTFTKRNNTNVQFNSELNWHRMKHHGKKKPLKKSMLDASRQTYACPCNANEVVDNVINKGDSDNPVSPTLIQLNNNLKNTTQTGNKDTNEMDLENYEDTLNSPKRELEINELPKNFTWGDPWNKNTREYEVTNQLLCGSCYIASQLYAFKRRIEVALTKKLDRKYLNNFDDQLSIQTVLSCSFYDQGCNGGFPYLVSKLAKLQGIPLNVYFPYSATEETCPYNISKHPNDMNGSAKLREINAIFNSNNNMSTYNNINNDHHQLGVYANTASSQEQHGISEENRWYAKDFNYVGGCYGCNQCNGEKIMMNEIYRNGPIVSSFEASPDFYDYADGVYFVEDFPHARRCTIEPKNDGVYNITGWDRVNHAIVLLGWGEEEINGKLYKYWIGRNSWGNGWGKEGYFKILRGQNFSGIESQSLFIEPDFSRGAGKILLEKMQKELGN

| SMILES | % Inhibition @ 10 uM [%] |
| --- | --- |
| O=C(Nc1cccc(Cl)c1)C1CC(=O)N(c2ccccc2)C1 (stereo not drawn) | 0.35 |
| Cc1ccc(/C=C2\N=C(c3ccc(C)cc3)OC2=O)cc1 | 2.31 |
| Cn1c(=O)c2c(nc(SCCO)n2Cc2ccc(Cl)cc2)n(C)c1=O | -5.96 |
| Cc1c(C)n(Cc2ccc(F)cc2)c2ccc(C(=O)N3CCC(C(N)=O)CC3)cc12 | -1.19 |
| CN(C)S(=O)(=O)c1ccc(-c2csc(-c3ccc(Cl)cc3)n2)cc1 | -3.34 |
| O=C(CN1C(=O)S/C(=C/c2c[nH]c3ccccc23)C1=O)Nc1ccc2c(c1)OCO2 | 5.25 |
| O=C(c1cc(-c2ccco2)[nH]n1)N1CCn2c1nc1ccccc12 | -2.18 |
| CCOC(=O)N1CCC(/N=C/c2ccc(OC(C)C)cc2)CC1 | -1.03 |
| OCCNc1nc2ccccc2n2nnnc12 | -0.522 |
| COc1ccc2cc(C(=O)Nc3ccc(S(N)(=O)=O)cc3)sc(=O)c2c1OC | 3.86 |
| Nc1nonc1-c1noc(-c2ccc(COc3ccccc3Br)cc2)n1 | 5.49 |
| COc1ccc2c(CNC3CCCC3)c(C(=O)O)[nH]c2c1 | 1.53 |
| O=C(CSc1nc2ccccc2c2nc3ccccc3n12)NCc1ccccc1 | 4.33 |
| Cc1ccc2oc(C(=O)NCc3ccncc3)cc(=O)c2c1 | 0.248 |
| CCc1nn(C(C)C(=O)N2CCC3(CC2)OCCO3)c(=O)c2cc3occc3n12 (stereo not drawn) | -0.281 |
| Cc1ccc(S(=O)(=O)N2CCN(C)CC2)cc1[N+](=O)[O-] | 6.53 |
| COc1ccc2ccccc2c1C(O)c1nccn1C (stereo not drawn) | -4.43 |
| Cc1nc(SCc2ccc(F)cc2)c2c3c(sc2n1)CCC3 | 10.9 |
| Cn1c(=O)n(C)c2cc(/C=C3/SC(=O)N(Cc4ccc(F)cc4)C3=O)ccc21 | 5.73 |
| CCN1C(=O)/C(=C2\SC(N)=NC2=O)c2cc(Br)ccc21 | -2.16 |
| CCC(C)NC(=O)Cn1ncc2c(C)n(Cc3ccccc3)c(C)c2c1=O (stereo not drawn) | 2.84 |

| SMILES | % Inhibition @ 10 uM [%] |
| --- | --- |
| CCCOc1ccc(/C=C2\SC(=O)N(CC(=O)N3CCOCC3)C2=O)cc1 | 4.22 |
| COc1cccc(CN2CCN(c3ccc(Cl)cc3)CC2)c1 | 1.63 |
| COc1ccc(-c2noc(=O)n2Cc2ccccc2Cl)cc1 | 1.91 |
| O=C(NC1CCCCCC1)c1cc2c(s1)CS(=O)(=O)C2 | -3.67 |
| CCCCNC(=O)C1CCN(C(=O)c2ccc(-n3c(C)cc4ccccc43)s2)CC1 | -2.1 |
| COc1ccc(C(=O)N2CCN(Cc3cc(OC)c(OC)c(OC)c3)CC2)cc1OC | 3.56 |
| Cc1ccc2c(=O)c(C(=O)c3ccc(Cl)cc3)cn(CC(=O)NCC3CCCO3)c2n1 (stereo not drawn) | 2.18 |
| Cc1ccc(CN2C(=O)CSc3ccccc32)cc1 | -1.44 |
| COc1ccc(OC)c(/C=C2N=C(/C=C/c3ccc(C)cc3)OC\2=O)c1 | -1.47 |
| CCN(CC)c1ccc(NC(=O)C2CCCC2)cc1 | -1.52 |
| CCOc1ccc(CC(=O)NCc2cn(C)nc2C)cc1OCC | -3.78 |
| CCOc1ccccc1-c1cc(NC(=O)c2cnn(-c3ccccc3)c2-n2cccc2)on1 | 5.4 |
| Cc1cc(C)n(C(CC(=O)O)C(=O)O)n1 (stereo not drawn) | -2.08 |
| Cc1ccc(S(=O)(=O)Nc2nnc(C)s2)cc1 | -1.77 |
| CCN(CC)c1nc2c(-c3cccc(C(F)(F)F)c3)nnn2c2ccccc12 | -8.42 |
| COCc1cc(C)n(CC(=O)c2ccccc2)c(=O)c1C#N | 1.13 |
| COc1cc(/C=C2/S/C(=N/c3ccccc3)N(C)C2=O)cc(Cl)c1O | 6.69 |
| Cc1ccc(COc2ccc(C3C(C#N)=C(N)Oc4cc(O)ccc43)cc2)cc1 (stereo not drawn) | 3.87 |
| Cc1nc2ccccc2c2oc(C(=O)N3CCN(C(=O)c4ccco4)CC3)cc12 | -7.13 |
| O=C(CNc1ccc2ccccc2c1)c1ccc(Cl)cc1 | -5.33 |
| CCC(C(=O)NCc1ccccc1OC)n1nc(C)c2sc3ccccc3c2c1=O (stereo not drawn) | 3.39 |

| SMILES | % Inhibition @ 10 uM [%] |
| --- | --- |
| CCC[C@@H](/C=C/S(=O)(=O)c1ccccc1)NC(=O)[C@H](CC1CCCCC1)/N=C/NS(=O)(=O)c1ccccc1 | -3.14 |
| Oc1ccccc1-c1cc(-c2ccccc2)nc(N2CCNCC2)n1 | -4.26 |
| CCn1cc(C(=O)OCc2cc(C)ccc2C)c(=O)c2ccc(C)nc21 | -5.28 |
| COc1ccccc1-c1nsnc1C(=O)O | -0.969 |
| CC1=C(C(=O)Nc2cc(C)ccn2)C(c2cccc(Oc3ccccc3)c2)C2=C(O)CCCC2=N1 (stereo not drawn) | 5.9 |
| COCCNC(=O)C1c2ccccc2C(=O)N(CCOC)C1c1cn(C)c2ccccc12 (stereo not drawn) | 7.15 |
| O=C(NCCCNC(=O)c1cccnc1)c1cccnc1 | 1.91 |
| O=C(O)c1ccc(-c2ccc(/C=C3/Sc4ccccc4C3=O)o2)cc1 | 1.29 |
| O=[N+]([O-])c1cccc(C2N=C(c3ccccc3)NC(c3ccccc3)=N2)c1 | 6.94 |
| Oc1cccc(Nc2nc(-c3ccncc3)cs2)c1 | 1.72 |
| NC(=O)C1CCN(Cc2cccc(Br)c2)CC1 | -1.78 |
| CN(C)c1cc[n+](Cc2ccccc2)cc1 | -4.64 |
| CC1=C(C(=O)Nc2cccnc2)C(c2ccncc2)n2ncnc2N1 (stereo not drawn) | 4.09 |
| COC(=O)C1=C(C)N(Cc2cccnc2)C(=O)/C1=C\c1ccccc1C(F)(F)F | 3.79 |
| O=C1CCC2(CCC(=O)N(Cc3ccccc3)C2=O)C(=O)N1Cc1ccccc1 | 0.661 |
| CCOC(=O)CN1CCN(c2ccc([N+](=O)[O-])cc2)CC1 | -4.58 |
| Cc1cc(C)nc(NS(=O)(=O)c2ccc(N/C=C\C(=O)c3ccc4c(c3)OCO4)cc2)n1 | 0.674 |
| O=c1/c(=C/c2c[nH]nc2-c2cccs2)sc2nc3ccccc3n12 | -0.703 |
| COc1ccc(-n2nc3c(c2NC(=O)c2cccc(C(F)(F)F)c2)CS(=O)(=O)C3)cc1 | 3.66 |
| Cn1c(C(=O)O)c(CNCCc2ccccc2Cl)c2ccccc21 | -6.04 |
| CS/C(=N\Cc1ccccc1)Nc1cc(-c2ccccc2)[nH]n1 | -4.07 |
